Over roughly 33,000 sequences, “E-score (-0.5 to 0.5)” has its median near -0.035; the highest 2% begin near 0.34. The list shows a part of the results.
Target: T1, Mot3 (UniProt P54785)
T1 sequence: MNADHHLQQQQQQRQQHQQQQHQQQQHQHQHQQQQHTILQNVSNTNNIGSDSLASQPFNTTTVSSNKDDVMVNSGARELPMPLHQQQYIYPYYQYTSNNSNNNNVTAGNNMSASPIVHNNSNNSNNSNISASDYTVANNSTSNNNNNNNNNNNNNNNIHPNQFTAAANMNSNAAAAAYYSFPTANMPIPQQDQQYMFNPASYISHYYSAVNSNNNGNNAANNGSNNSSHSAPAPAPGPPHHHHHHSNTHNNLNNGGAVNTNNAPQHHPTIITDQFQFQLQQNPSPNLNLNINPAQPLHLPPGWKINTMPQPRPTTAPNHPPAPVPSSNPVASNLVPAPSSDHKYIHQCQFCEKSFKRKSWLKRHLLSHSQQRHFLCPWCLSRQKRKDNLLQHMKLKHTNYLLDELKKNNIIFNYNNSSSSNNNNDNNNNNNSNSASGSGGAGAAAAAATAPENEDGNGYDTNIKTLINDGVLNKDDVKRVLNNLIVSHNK
Assay: PBM E-score (8-mer binding enrichment) (E-score (-0.5 to 0.5)); higher = stronger / more preferred TF binding; most listed sequences are background and not binding sites
Settings: protein concentration: 200 nM; construct: GST-full length
Summary of the method: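 GST-tagged yeast TFs (full-length or DNA-binding domain) were made by PURExpress in vitro transcription/translation and applied at about 100-200 nM to universal all-10-mer Agilent arrays. The arrays were made double-stranded by primer extension, on fresh or once-stripped slides. Bound protein was detected with fluorescent anti-GST, and scans were normalised with masliner. Each ungapped eight-base word, pooled with its reverse complement, received an E-score (modified Wilcoxon-Mann-Whitney statistic) from the Universal PBM Analysis Suite.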

Sequence	PBM E-score
CCTATCCG	-0.113
CGGCGACG	-0.18
CGCGTTAA	0.368
ACCGTAGG	-0.0698
CACCCCTG	-0.171
GCCCGCGC	-0.25
AATCGTCA	0.0537
CAGGCAGG	0.306
TCATCGAA	-0.0178
AGTATGAT	0.0049
CCGATCGC	-0.18
AGAGAATC	-0.0691
CGAACACA	0.0814
GGGAGATA	-0.0973
GGATTGCA	-0.167
AAAGGTGA	-0.076
GGCGAGCA	-0.292
CCGGTGAG	-0.29
GTCTAAAA	-0.0185
ACGTTTTG	0.0796
CGCGGTTA	-0.0223
CACGCCAA	0.0196
GACGTATA	0.0915
ACGTCAGT	-0.182
GATGAGGC	-0.0517

Sequence	PBM E-score
AGTGGTTC	-0.0362
TTACCAAA	0.0638
ATAAAAGC	0.0662
AGTGTCGG	-0.0559
CCTGTACG	0.189
CAATCGGA	-0.144
CACGTCGG	0.0553
AGCTCTAC	0.143
CTGTAGTC	-0.0244
ACTAGCAG	0.109
ATGCTGCC	-0.0402
CCGAGAAA	-0.144
GAATTCCC	-0.15
CCTTGCCA	-0.00989
ATACTAAG	-0.05
GCCTCTAC	-0.0382
GAAGCGCA	-0.156
ACCGATAA	0.0054
AGCCCTTA	-0.16
GTCGTAAC	0.085
GGTAATAC	0.112
ATAAGTTA	0.213
AGGGTCAA	-0.0327
CCAGCAGC	-0.282
CAGCTATA	-0.00597

Sequence	PBM E-score
CCGTGTAG	0.367
GCGTAAGC	-0.0393
ATGCATAG	0.0955
CGCTAAGA	-0.031
CAACCATA	-0.0844
CTCAGTCC	-0.14
CGCGTGCA	0.0183
CGAATCAA	0.0349
ATGATAAC	0.0727
GGCTTCCA	-0.216
ACAACGTC	0.0585
AGGTATGA	-0.0139
ATGCAACG	0.0891
GACGGTAC	-0.116
ATCACATA	0.224
CACCATGA	-0.135
CAGATCTA	0.0604
CGCCCCTC	-0.0863
CACGGGTC	-0.0344
GGATTCCA	-0.0253
GATGAGCC	-0.0834
AACGACAA	0.17
AAATGATG	-0.00115
CCCTAGCG	-0.215
GACGGAGC	-0.277

Sequence	PBM E-score
ACAATCAA	0.183
CCGTTATC	-0.169
AGCGAAGG	0.0157
CTCCCTAA	-0.0538
AATGCTCA	-0.108
AGATTATC	-0.148
CACATTCG	0.149
ATTACCGA	0.123
AGTCCACG	-0.213
ATCGGTGA	-0.0352
ACTGATCA	-0.0193
AATTGCTC	-0.194
CGCGAACA	0.0614
ATGACCGC	-0.169
CTTTCCGA	-0.229
AGACGCTG	-0.123
GGGTGTTA	0.148
CATCGCAG	-0.143
GCCGTCCA	-0.0498
GCCCGAAA	-0.0818
ATAGATTA	0.14
CCGCTTTA	0.117
ATCACTAG	-0.0297
GGTACACC	0.0315
AATAGAAT	0.0328

Sequence	PBM E-score
CACTGGTA	-0.00383
CCATCGTC	-0.216
GAGTCCAA	-0.0571
GTACGCAC	0.105
CACCGGTA	-0.126
TATTCGAA	0.00743
CAGCTGTA	-0.0189
GTCAACAC	0.257
ACGGCTCG	-0.0967
CAGAAAAC	0.152
CTAGTCCC	-0.107
AATGTACT	0.152
TGACGGCA	-0.155
CAACAGAC	0.0837
AATTGCCC	0.0147
CTGACTTA	-0.104
ACTTCTCT	-0.028
ATAGAGCG	-0.11
CTTGAGTC	-0.021
ATGGTGCA	0.0251
ACTGTCAA	-0.121
CTTACATC	0.163
GAGACGGA	-0.171
TACCGTGA	-0.13
ACCGGTCA	-0.146

Sequence	PBM E-score
ATCGCCCG	-0.138
CCAGAACG	-0.0663
AGCAGGCT	0.0328
AAAGGAAT	-0.0306
AGCTGGCC	-0.14
GATAGGGC	-0.166
GCGATTTA	-0.11
GAATCTAA	-0.0012
CATCCTAC	-0.232
AGCCACTG	-0.141
CCCCCGAA	-0.0659
CTAAGGAG	-0.254
CCCGTATC	-0.222
TAGTCACA	0.0757
GCCGGAAA	-0.248
GGTTGCAC	0.0242
GAGCCTCA	-0.282
ACGGCTAT	-0.0851
CCGTTGTC	-0.0341
AAAATTGG	-0.129
GGGCTCGA	-0.0689
AACACAGA	0.264
CTGGTTGC	0.0984
GAATTAAC	0.191
CAGTAGAC	-0.0682

Sequence	PBM E-score
GGTGGTTA	-0.177
CACGGCGC	0.0639
GGTGGAAA	-0.331
GTGCCTCA	0.454
GTCCTTTA	0.0332
ACCTCGTC	-0.155
GGCGGGAC	-0.296
CGCGCCAG	-0.0635
CACAAAGA	0.11
GGCTTCGA	-0.0492
GATTCCAC	0.00725
AGGACCAC	-0.0621
ACGTAGAT	0.269
GTCGCAAC	-0.0124
CTAACATA	0.156
AAAGATTC	0.126
AAGGTGAC	-0.0236
GGATAATA	-0.0236
CTCTGTTC	0.0419
CTAGAAAA	0.118
ATGAGCTC	-0.0741
CAATACTC	0.0636
CGATGGGC	-0.19
CACGCGGC	-0.0308
AAGGACAC	2e-05

Sequence	PBM E-score
ACTGTCGC	-0.125
GGTAAAAA	0.267
GCTAAAGA	0.0361
TATCCAAA	0.0455
TCTGATAA	-0.158
CATACAGC	-0.19
CCCAAGCA	-0.0646
GAAGCTCC	-0.266
GGGAGCAA	-0.134
GCCACGGC	-0.164
AGTCGTAA	0.0638
GCTCCAGC	-0.154
CTCTTGTA	0.239
CCTCTCTA	-0.195
GGCACGGA	0.397
GACGCTTA	-0.0493
CTCCATAC	-0.122
ACACTAGG	-0.00897
GGGTACAC	0.0896
AAAACCAC	0.0758
GCGCGTGA	0.0773
AACACCCC	-0.141
GCTTTGCA	-0.0184
CTGGCGCA	-0.218
CTTACGGC	-0.206

Sequence	PBM E-score
AAACCGGA	-0.134
CCGTCCTC	-0.274
AACCTTTA	0.0683
GACACAGC	0.118
CCCCCGCC	-0.304
AGAGTTAT	-0.184
GACGAGTA	0.0318
CTTTTAGA	-0.165
CCAAGTAA	0.178
GTGCCCAC	0.276
ATAACCTC	-0.0664
CAGTGTAG	0.154
ATAGTATG	0.0342
AGGGTGGA	-0.338
ACTTACGA	0.166
CCCTGGCA	-0.191
TAGGAGGA	-0.00925
ACCTCAAA	-0.0738
GGAACTAC	0.12
CGGGAAGC	-0.147
GAAAAACA	0.136
CACCCGCC	-0.0513
CGTCCAAC	0.0976
ACCGCGTG	0.0158
CTAGGCTC	0.043

Sequence	PBM E-score
ATATCAAC	-0.0202
ATATATAT	0.229
GCTCACAA	0.00514
ACCGGGTA	0.0313
CAGCATGA	-0.0674
AAATATCT	-0.0704
AAGACACA	0.0801
GTCCCGAA	-0.0546
AGAACGAG	-0.00842
TCCAGGCA	0.463
AACGCTAG	0.0348
CCATCATC	-0.226
ACGTCTCT	0.0141
CGATGTCA	0.0849
TAGCCCTA	-0.0815
ACTCGGTA	-0.027
AAGATCAG	-0.167
CGCGCAGC	-0.144
CTCTGATA	-0.208
CCTATTCG	-0.08
ACCGTCTA	-0.007
AACACGCT	0.335
AATCATAC	-0.0233
GAGCACGC	-0.0754
AAAGTCGA	-0.122

Sequence	PBM E-score
ACTCTAGC	-0.19
CTTTTCTC	-0.00155
CTGTGTCC	0.0926
CGACTATC	-0.188
ATAGAAAT	-0.0355
ATCCCCAA	0.065
TAATGAGA	0.0652
CCTGGTCC	-0.276
CAAGTCTA	0.053
TAGGGCGA	-0.123
CATACTTA	0.193
GGCTCTCA	-0.189
CCCTCCGA	-0.214
AATCTGAC	0.0237
AGTGATTA	0.0245
AAAACGCT	-0.027
AGGAATTC	-0.0434
ACCGTCCA	-0.304
CAACTATA	0.00989
TGAATTAA	0.181
CCTTCACC	0.168
AGATTGGG	-0.196
ACGGGGTG	-0.179
AAAATTTC	-0.00945
ACGTCAAT	-0.0649

Sequence	PBM E-score
CACCGCGA	-0.105
ATGCAGCA	-0.107
CAACGGTG	-0.174
TCTTATCA	0.259
CGATTTAC	0.0537
AATGTTTA	0.209
ATTACCCA	0.117
ACTAGGTC	-0.144
GATCGCCC	-0.0373
ACAAGCTA	0.187
CGACGGCC	-0.134
ACGAGCCG	-0.0112
CCACCATC	-0.265
CGCCCGAA	-0.164
AAACTCAG	0.0968
ATTCCATA	-0.0922
AAAAAAAG	0.0296
AAAACACA	0.272
CCTCGGCG	-0.0846
AACGGTCG	-0.0651
AAGTCGAC	0.152
AGGAGCCC	0.00792
TGGGCTAA	-0.197
AAATGCTC	-0.0582
CTTCTTAA	0.249

Sequence	PBM E-score
AGCAATTC	-0.0575
AGGGCGCG	0.0819
GATGAAAA	0.113
CTTCAACA	0.268
CCTCAGTC	-0.263
ACGTTGTC	0.0318
CGAGACAG	-0.00715
ATGAGTAG	0.00079
AAGCACGC	0.216
CATGAGCG	-0.167
GCCCTAGA	-0.256
GACCTATC	-0.0804
AATAAACT	-0.0556
GAAAGTTA	0.0912
AGTCGCAG	-0.268
TCCTACAA	0.279
GCCCCGTA	-0.246
CAACCCAA	0.0828
GGCCACTA	-0.141
TGCCCACA	0.175
GGTTGGAA	-0.221
ACCAGGCT	-0.06
ATGCACGC	0.0647
CGTACAAC	0.163
ATGGTCCG	-0.213

Sequence	PBM E-score
CCCCCCGA	-0.442
GTCCTGCA	-0.0442
ACATTTCG	0.0564
ATGCGGGC	-0.0621
CGGTGTTA	0.075
ACATCAGT	0.0368
CAAGAAAC	0.0824
ACCCTAGT	-0.0513
CGAAACAA	0.0406
ACCAAATG	-0.15
GTCATGAC	-0.0798
GCAATCCA	0.0284
GAAACTCA	-0.0953
AAGAGCGA	-0.284
CGTGGCCC	-0.283
AATCTCGA	0.018
CGGATAAG	-0.358
ACCATATA	0.124
GGGGTGCA	-0.134

Source: the supplement of paper PMC3334620
